From paper PMC5283754 come the findings set out here.

Chains of the proteins cited; added tags and fusions are not shown. Lines headed by an entry give the natural chain unless they say otherwise; changes in a name come on top.
UniProt Q9BYM8: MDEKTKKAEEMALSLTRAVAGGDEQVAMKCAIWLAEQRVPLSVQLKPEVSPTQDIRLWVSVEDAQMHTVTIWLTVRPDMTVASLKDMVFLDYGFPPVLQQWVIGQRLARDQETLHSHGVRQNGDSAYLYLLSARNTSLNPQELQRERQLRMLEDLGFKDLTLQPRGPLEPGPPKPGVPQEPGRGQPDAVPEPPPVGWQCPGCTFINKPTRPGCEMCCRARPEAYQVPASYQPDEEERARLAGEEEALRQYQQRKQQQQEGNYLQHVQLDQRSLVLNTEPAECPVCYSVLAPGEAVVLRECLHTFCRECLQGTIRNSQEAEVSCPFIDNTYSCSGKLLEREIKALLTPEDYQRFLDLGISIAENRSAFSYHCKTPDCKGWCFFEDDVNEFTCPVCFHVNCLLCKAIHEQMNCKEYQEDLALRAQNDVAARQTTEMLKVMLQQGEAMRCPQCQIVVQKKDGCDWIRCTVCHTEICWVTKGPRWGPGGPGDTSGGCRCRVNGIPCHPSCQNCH
UniProt Q96EP0: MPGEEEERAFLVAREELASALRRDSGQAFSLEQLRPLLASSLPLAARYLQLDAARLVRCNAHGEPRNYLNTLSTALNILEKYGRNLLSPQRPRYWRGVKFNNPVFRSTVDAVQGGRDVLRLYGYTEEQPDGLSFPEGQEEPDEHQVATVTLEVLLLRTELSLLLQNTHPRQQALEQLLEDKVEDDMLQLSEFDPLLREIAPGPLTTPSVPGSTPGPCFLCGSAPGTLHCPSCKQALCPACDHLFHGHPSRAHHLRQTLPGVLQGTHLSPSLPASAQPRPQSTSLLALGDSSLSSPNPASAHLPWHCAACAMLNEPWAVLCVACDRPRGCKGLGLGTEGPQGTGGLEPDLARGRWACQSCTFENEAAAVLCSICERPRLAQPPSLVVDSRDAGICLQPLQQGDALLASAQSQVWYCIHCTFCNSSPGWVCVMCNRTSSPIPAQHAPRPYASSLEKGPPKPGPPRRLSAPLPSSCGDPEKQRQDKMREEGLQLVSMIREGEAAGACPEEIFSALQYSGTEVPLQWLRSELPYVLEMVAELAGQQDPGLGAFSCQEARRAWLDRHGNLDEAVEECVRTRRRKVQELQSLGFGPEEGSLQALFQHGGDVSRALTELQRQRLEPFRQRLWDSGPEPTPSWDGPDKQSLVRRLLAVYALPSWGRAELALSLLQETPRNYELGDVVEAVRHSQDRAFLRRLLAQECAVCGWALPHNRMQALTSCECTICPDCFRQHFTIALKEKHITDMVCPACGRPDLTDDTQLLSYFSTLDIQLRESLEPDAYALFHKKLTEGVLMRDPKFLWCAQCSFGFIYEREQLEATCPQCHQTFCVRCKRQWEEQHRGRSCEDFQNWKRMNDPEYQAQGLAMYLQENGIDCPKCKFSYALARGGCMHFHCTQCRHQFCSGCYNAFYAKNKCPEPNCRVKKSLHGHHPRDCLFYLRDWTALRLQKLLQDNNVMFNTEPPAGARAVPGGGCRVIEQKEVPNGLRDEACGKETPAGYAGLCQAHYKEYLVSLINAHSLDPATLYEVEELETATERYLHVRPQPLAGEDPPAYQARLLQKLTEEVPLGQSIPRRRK
UniProt O15111: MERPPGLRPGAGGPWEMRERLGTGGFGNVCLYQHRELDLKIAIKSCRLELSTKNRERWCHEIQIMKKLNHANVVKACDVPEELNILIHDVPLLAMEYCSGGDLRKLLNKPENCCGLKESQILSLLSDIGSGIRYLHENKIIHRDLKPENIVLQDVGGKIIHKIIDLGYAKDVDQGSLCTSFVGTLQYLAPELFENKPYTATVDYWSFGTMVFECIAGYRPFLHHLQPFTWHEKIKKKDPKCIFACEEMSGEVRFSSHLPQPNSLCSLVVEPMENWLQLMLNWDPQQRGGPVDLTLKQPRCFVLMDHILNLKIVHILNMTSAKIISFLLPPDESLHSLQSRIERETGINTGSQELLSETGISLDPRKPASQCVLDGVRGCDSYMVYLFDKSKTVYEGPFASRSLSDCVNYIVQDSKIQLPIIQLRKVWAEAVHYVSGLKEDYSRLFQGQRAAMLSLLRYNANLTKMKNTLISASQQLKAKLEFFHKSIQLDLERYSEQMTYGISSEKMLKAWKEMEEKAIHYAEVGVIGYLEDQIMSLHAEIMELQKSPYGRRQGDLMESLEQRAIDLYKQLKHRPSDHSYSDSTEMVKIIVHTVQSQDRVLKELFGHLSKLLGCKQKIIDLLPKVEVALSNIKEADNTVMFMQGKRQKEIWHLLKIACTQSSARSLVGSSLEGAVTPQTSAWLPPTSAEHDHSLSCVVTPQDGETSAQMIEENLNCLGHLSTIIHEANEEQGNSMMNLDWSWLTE

No constants are given. Whether binding was seen depends on the method and setting. For part of these data: In cells and extracts the contact can be indirect. Some entries that bind do so weakly or less than the wild type. For part of these data: Sequences can lack the tags named with a protein.

For assay [1], the target named is Tax in HTLV-1-infected T cell lines (HTLV-1) (UniProt P03409). Put plainly: co-IP; cell lysates in IP buffer (150 mM NaCl, 1% NP-40); immunoprecipitation with an anti-Tax antibody, immunoblot; JPX-9 with or without CdCl2 (20 μM, 18 h); HUT102 with control antibody; MT-2 and MT-4 with control or Tax shRNA. For orientation: In western blotting, separated proteins are transferred to a membrane and probed.

For assay [2], the target named is Tax induced in JPX-9 cells (HTLV-1) (UniProt P03409). The description is as above.
Assay [3] deals with recombinant His6-Tax (HTLV-1 Tax) (HTLV-1) (UniProt P03409). Put plainly: co-IP; recombinant His6-Tax or His6-M22 incubated with Jurkat S-100 cytosolic extract and ATP (2 mM), 30°C 1 h; immunoprecipitation with an anti-Tax antibody, immunoblot; also done with ubiquitin mutants or HA-ubiquitin (50 μM) added (Fig 3D); only the target purified.
A further assay has as its target HOIL-1L-HA (UniProt Q9BYM8). Put plainly: co-IP; HEK293T co-transfected with HOIL-1L-HA or Myc-HOIP (or deletion mutants) and a Tax plasmid, 48 h; immunoprecipitation with anti-HA or anti-Myc, immunoblot with anti-Tax.
For a further assay, the target named is Myc-HOIP (UniProt Q96EP0). Described as above.
The next assay has as its target GST-HOIL-1L (UniProt Q9BYM8). Put plainly: pull-down; 300 ng GST fusion protein on glutathione sepharose, 500 ng His6-Tax, 4°C 1 h, 50 mM Tris-HCl pH 7.5, 150 mM NaCl, 1 mM EDTA, 1% Triton X-100, 1 mM DTT, 2.5 mg/ml BSA; immunoblot with anti-Tax; both purified.
The next assay deals with GST-HOIP (UniProt Q96EP0). The description is as above.
The target in a further assay is T1, GST-Sharpin (UniProt Q9H0F6).
T1 sequence: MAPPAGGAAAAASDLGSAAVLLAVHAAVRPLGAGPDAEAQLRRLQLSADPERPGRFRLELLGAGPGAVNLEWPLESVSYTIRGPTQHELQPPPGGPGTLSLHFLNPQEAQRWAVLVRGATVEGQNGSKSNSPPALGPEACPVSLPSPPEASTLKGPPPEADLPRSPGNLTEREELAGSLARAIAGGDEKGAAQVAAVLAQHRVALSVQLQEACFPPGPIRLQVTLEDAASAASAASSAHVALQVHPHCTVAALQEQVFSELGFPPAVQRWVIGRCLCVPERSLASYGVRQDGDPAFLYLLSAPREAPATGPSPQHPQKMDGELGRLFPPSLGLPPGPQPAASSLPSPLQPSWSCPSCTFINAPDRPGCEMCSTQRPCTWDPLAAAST
Described as above.

As for “HOIP (endogenous) (from UniProt Q96EP0 1-1072)”, the binding entry in assay [1], in assay [2] and in assay [3] was “binds” in each case.

On to “IKK complex (endogenous) (from UniProt O15111 1-745; O14920 1-756; Q9Y6K9 1-419)”, for which, in assay [3], the binding result was “binds”.

Consider “Tax expressed in HEK293T cells (from UniProt P03409 1-353)”, for which the binding result in the assay with HOIL-1L-HA and with Myc-HOIP was “binds” throughout.

For “recombinant His6-Tax (HTLV-1 Tax) (from UniProt P03409 1-353)”, the binding entry is “binds” with GST-HOIL-1L, “binds” in the assay with GST-HOIP and “no binding (tested: 500 ng of His6-Tax)” with GST-Sharpin.
